Read counts are not given, so values of variants with three or more changes are uncertain.
B1: LINE1-mini (parent)
chain: GGCAGAGCUCAACACAGCGUGGCAAAGUGGCUGUGGCUAGACUGCC

Variants of: B1
Test: self-cleavage, relative activity (ratio to wild type); higher = more cleavage; in vitro, sequencing; the parent is a self-cleaving ribozyme

Variant | self-cleavage
C15U A16G G22C U32G U38G | 0.03
C15A A25U G30U G36A C37A U43A G44U | 0.08
C15G C18G U34A | 0.03
C15A G22C G33A | 0.03
A14G U28G C31U | 0.07
A14U C37U G40A | 0.17
C15A A24U A41C | 0.09
A14U A24U A25G G33A | 0
C15A G21C C31U G44A | 0.21
C15U C31U C37U | 0.17
C15A C23G C37G G40U U43C | 0.03
C15A C18U G27A G33A C37U | 0.02
C15U C23A G30U C46U | 0.53
A14U U20A U32A G33U | 0.02
A14U G27C C31G | 0.03
A14U G19A U38G | 0.06
C15G C37G C42A | 0
C15U C31U C45A | 0.03
C15U A24G A41G | 0.25
C15G U20A G21U U34G | 0.01
C15G C18G A26C A39G | 0.13
C15G A16G G21C | 0.03
A14U C37A G44U | 0.12
A14U U28G G29A | 0.05

Variant | self-cleavage
C15A G27A G29U | 0.21
C15G G19U U20C | 0.03
C15A G17C G22U G40U C45A | 0.02
A14U G21U U32G G35A G36U A39U | 0.06
C15G U20C G36C | 0.11
C15A U28A U38C | 0.09
A14U U20C G22U U34G G35U G40U | 0.01
C15A U20A U32A A39U | 0.02
C15A U32A G35U | 0.18
A14U A16C G27U G44U | 0.08
C15A G27U C37U A41G | 0.44
A14U C18U A25G | 0.03
A14U G17U G33A U43A | 0.14
C15U G17A A24U G27U | 0.07
C15A A16U G22A | 0.08
A14U C15G C42U | 0.01
C15U A24U C46A | 0.17
A14U G29U G40C | 0.07
C15G A25C G27U C31A U32G | 0
C15G G22A C23A U32A | 0.07
C15U C18U U32A A39G | 0.04
A14U G17U A25C C45A | 0
C15A C42G G44U | 0.04
A14U G21A G36A U38C C42U | 0.01

Variant | self-cleavage
C15A U34C G36C | 0.02
C15A G36A C37U | 0.03
C15A G21U G33C U43C | 0.03
A14G G33U G40U | 0
C15G G21A A26U | 0.07
C15A G33A U34G C37U | 0.01
A14U G19C U20C A24C | 0.06
C15U A16U G30U | 0.04
A14U C18A U34G | 0.12
C15A A24U A25C | 0.02
C15A C31G C45G C46A | 0.07
A14U G17C G19U G22A | 0.12
C15A U32G C37U | 0.09
A14U A24C C45U | 0.07
A14U A16U G22U A39C G44A | 0.02
A14U C15G C23A | 0.05
A14U G36A C45A | 0.01
A14U G30A C37U C42G | 0
C15G C42U U43C | 0
C15U C18G U38G | 0.04
C15U A25C U43C C45U | 0.07
A14U A24C U38C C45G | 0.01
A14G G30A A39G U43C | 0.08
C15A A16C C23A G27U | 0.03

Variant | self-cleavage
C15A G17C U20G | 0.05
C15G G21A G30U | 0.03
C15G G19U C23A | 0.05
C15U C18A C23A G40U | 0.02
C15A A26G U32G | 0.06
A14U G21U G40A | 0.11
C15G G21A G27U G33U | 0.4
C15G A41U C46G | 0.01
C15A C18G G36A G40U | 0.03
C15G A26C C37U C42U | 0.01
C15A G17A U38A A39G C42A U43C | 0.01
C15U A26C U34G | 0.02
A14U G35C U38C | 0.05
C15A G21A G36U | 0.09
C15A C23U A26C | 0.23
A14U G30U C46A | 0.06
A14G G33U C42A G44U | 0.02
A14U G44A C46U | 0.05
C15G G17C G29U U32A A39G C42U | 0.03
A14U A24C G29A C37G A39C | 0.02
A14U A25U G29U | 0.61
C15G G21U G29C C37U C46U | 0.04
C15A U34C G36A U38G | 0.04
A14G U28C U38C | 0.18

Variant | self-cleavage
A14U G17A C42U | 0.12
C15A C23G G30A | 0.03
A14G G30U U32C U34G C45G | 0.03
C15G G33A G35A C42U | 0.02
A14U U20G C31A G35A | 0.04
C15G C18A G36C | 0.01
C15G G30U U34C G36C U43A | 0.01
C15G G19C G44C C45G | 0
C15G G27A U32G | 0.01
A14U G19A G29U U38A | 0.93
C15G A24U U28A | 0.03
C15G G30C G36U C45G | 0.02
A14U G29A U34C G40C | 0.05
A14U C15U C18U G21C U38C | 0.09
C15G U20C C45G | 0.03
A14U C18U A24U | 0.08
A14U C23G G33C | 0.01
C15A G19C G33C C37U G40C U43A | 0
C15G G36C A41G | 0.02
A14G G30U A41G | 0.06
C15U A16G A25G G29U C45G | 0.02
C15A G27C G30C A39U A41C G44A | 0.03
C15G G30A C45U | 0.02
C15G G17C G36C | 0.07

Variant | self-cleavage
C15U C31G C46A | 0.04
C15U C31G G35A G40A C42G | 0.02
C15U A41C C46U | 0.04
A14U A26C G29U | 0.23
A14U C42U C45G | 0.05
C15G G21U U28G G44A | 0.01
A14U U20G G21A U38A C42U | 0.05
A14U G19A U20A C42A | 0.04
C15A C18A A26G G30C | 0.02
C15G A25C U34G | 0.01
A14U U20A G29U C31A G33U | 0.02
C15G G17C C31G G44U | 0.02
C15A G17A G33A | 0.05
C15G C18G A24G U32C | 0.02
C15U C31A C46U | 0.17
A14G G40C G44C | 0
C15A U28G U34G | 0
C15A G19C G44C | 0.04
C15G G21A C45U | 0.03
C15G G21C C23A U34A A39U C42U | 0.03
A14U A16G C46U | 0.03
C15G G17U A24U U34G A39C | 0.03
C15G G19U U43C | 0.08
C15A U20G A25C | 0.02

Variant | self-cleavage
A14U U20C G22C C37U | 0.03
A14U U34A C37A | 0
A14G U32G A41G | 0.06
C15A U28A C37G | 0.01
C15A U38C A39G | 0.04
C15G C31U U32A U38A C42A | 0.05
A14G G35A U43C | 0.07
C15A G21U G27A G30A | 0.19
C15G A24C G27C | 0.04
C15A G17A A26U G35U | 0.02
C15G G30C C37A A39U G40U C42G U43G | 0.02
A14U A39C A41U | 0.06
C15A G17A U38A C46U | 0.03
C15A G27U G40A C45G | 0.01
C15A G22U G27A C37A | 0.01
A14U C18A G36A G40C U43C | 0.04
C15A C18A G35A | 0.03
C15U C18G U28A | 0.06
C15A G19C A26U | 0.04
C15A A16U G19A U32A | 0.02
A14G G27U C42A | 0
C15A G19C A25U C31A G40A | 0.05
A14G G35C G44C | 0

Source: the RNAGym collection of RNA variant scans (doi:10.7554/elife.90254)
